These results are taken from article PMC4336329 (PLoS ONE, 2015).

In all, about 310,000 compounds went through this assay and about 14,000 (4.5%) showed an effect of 50% or more. The effect is printed as a negative number. This is one part of the list.
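Further: peak tail current of the secondary pulse compared with the same well before compound.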

Sequence of human ether-à-go-go-related gene (hERG) potassium channel (Q12809 whole entry, looked up): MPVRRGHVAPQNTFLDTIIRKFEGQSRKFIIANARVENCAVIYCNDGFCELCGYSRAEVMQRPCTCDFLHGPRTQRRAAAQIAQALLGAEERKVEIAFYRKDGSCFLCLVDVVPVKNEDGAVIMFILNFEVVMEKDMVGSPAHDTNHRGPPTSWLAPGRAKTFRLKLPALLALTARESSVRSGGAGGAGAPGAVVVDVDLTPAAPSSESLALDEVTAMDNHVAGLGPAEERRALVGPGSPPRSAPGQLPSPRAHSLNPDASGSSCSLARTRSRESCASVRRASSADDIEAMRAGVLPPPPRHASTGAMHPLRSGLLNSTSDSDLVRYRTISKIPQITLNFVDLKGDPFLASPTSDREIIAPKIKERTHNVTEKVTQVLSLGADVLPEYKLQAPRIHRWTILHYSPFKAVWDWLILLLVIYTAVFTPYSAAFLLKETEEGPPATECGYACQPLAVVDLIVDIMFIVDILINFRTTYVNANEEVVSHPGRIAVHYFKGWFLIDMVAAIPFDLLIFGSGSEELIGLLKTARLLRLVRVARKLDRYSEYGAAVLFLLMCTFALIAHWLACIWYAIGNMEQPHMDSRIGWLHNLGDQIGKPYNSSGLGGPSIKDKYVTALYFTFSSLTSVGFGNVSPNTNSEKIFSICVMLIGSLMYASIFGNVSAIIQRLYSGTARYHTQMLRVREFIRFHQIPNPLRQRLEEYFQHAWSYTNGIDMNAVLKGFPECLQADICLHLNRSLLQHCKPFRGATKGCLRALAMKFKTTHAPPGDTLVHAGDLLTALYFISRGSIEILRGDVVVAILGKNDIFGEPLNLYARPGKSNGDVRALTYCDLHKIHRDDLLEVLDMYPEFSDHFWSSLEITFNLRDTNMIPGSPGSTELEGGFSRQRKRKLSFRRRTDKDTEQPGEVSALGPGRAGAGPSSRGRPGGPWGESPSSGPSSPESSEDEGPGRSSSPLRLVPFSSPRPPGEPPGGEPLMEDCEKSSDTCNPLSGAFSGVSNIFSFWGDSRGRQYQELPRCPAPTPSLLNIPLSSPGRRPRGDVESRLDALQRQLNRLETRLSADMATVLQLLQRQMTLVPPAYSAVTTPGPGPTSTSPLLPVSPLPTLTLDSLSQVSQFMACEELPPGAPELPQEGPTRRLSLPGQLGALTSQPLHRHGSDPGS

The assay addresses human ether-à-go-go-related gene (hERG) potassium channel (human, UniProt Q12809). Briefly: primary screen, population patch clamp on CHO cells stably expressing hERG.
In the case of `CCOC(=O)C1(Cc2ccccc2)CCN(Cc2cccc3nccnc23)CC1`, the “hERG current change (%, negative = inhibition) at 10uM” value is reported as -59.9%.
The value for `Nc1c(-c2cccs2)cnc2c(-c3ccc(F)cc3)cnn12` was 12.5%; that for `CC(C)c1ccc(NC(=O)C2C3C=CC4(CN(Cc5cccnc5)C(=O)C24)O3)cc1` (centres unmarked) was 9.2%.
Take `Cc1ccc(NC(=O)Cn2nc([N+](=O)[O-])c(Br)c2C)cc1C`: the “hERG current change (%, negative = inhibition) at 10uM” value is recorded as 6.58%.
The value for `Cn1nc(C(F)(F)F)c(/C=N/OC(=O)c2ccccc2Cl)c1SCc1ccccc1Cl` was -5.41%; that for `CC(=O)c1ccc(-c2ccc(C(=O)Nc3nc(C)c(C(C)=O)s3)o2)cc1` was -1.79%; that for `CN(CC(=O)Nc1cccc([N+](=O)[O-])c1)S(=O)(=O)c1ccccc1` was -51.9%.
The value for `Cc1ccc(S(=O)(=O)Nc2ccc(C(=O)Nc3ccncc3)cc2)cc1` was 18.5%.
For `CCCOC(=O)CCCCCCCCC(O)CN1CCCCC1.Cl` (centres unmarked) the value was -30%; for `O=c1c2ccccc2c(C=NCCCN2CCOCC2)c(O)n1Cc1ccccc1`, -47.7%; for `COc1ccc(C(=O)NC(C)C2CC3CCC2C3)cc1` (centres unmarked), 2.42%.
Regarding `COC(=O)c1cc2ccccc2c(=O)s1`, the “hERG current change (%, negative = inhibition) at 10uM” value is listed as -4.28%.
On to `COc1ccc(S(=O)(=O)N2CCCCC2)cc1NS(=O)(=O)c1cc(Cl)ccc1Cl`, for which the “hERG current change (%, negative = inhibition) at 10uM” value is on record as -11.7%.
For `O=C(Nc1ccc(Cl)cc1)c1csc(-c2ccncc2)n1` the value was -38.6%; for `O=C(CSCc1ccccc1)NCCc1ccc(F)cc1`, -1.11%; for `COC(=O)c1cc(S(=O)(=O)Nc2ccc(C)cn2)c[nH]1`, 15.4%.
The value for `O=C(CCc1nc(-c2ccccn2)no1)NCc1ccc2c(c1)OCO2` was 8.83%.
The value for `CN(C)c1ccc(C(=O)c2ccccc2)cc1` was -1.72%.
For the compound `c1ccc(-n2cnnc2SCc2nc3ccccc3s2)cc1`, the “hERG current change (%, negative = inhibition) at 10uM” value is given as 5.25%.
For `COc1ccc(CN(C(=O)Cn2nnc(-c3ccc(C)o3)n2)C(C(=O)NCC2CCCO2)c2ccco2)cc1` (centres unmarked) the value was -0.424%; for `CC(=O)Nc1ccc(N2N=C(C)C(N=Nc3ccccc3)C2=O)cc1` (centres unmarked), -8.98%; for `Cn1cccc1Cc1nnc(SCC(N)=O)n1-c1ccc(F)cc1`, -1.46%.
In the case of `O=C(N/N=C/c1cccc([N+](=O)[O-])c1)c1ccc(Br)cc1`, the “hERG current change (%, negative = inhibition) at 10uM” value came out at 10.1%.
The value for `CCOC(=O)c1cnc2c(C#N)c(C)nn2c1C` was 1.96%; that for `O=C(O)c1cccc(N=Nc2c(O)[nH]c(=O)[nH]c2=O)c1` was -1.03%; that for `NNC(=O)CSCc1nc(-c2ccc(Cl)cc2)cs1` was 7.86%.
Turning to `COc1ccc(NC(=O)COC(=O)CN2C(=O)C3CCCCC3C2=O)cc1OC` (centres unmarked), the “hERG current change (%, negative = inhibition) at 10uM” value is listed as 11.1%.
In the case of `COc1ccccc1Nc1nc2nonc2[nH]c1=O`, the “hERG current change (%, negative = inhibition) at 10uM” value was found to be 30.2%.
For `COc1ccccc1/C=C/C=N/NC(=O)CCC1C(=O)NN=C1C` (centres unmarked) the value was 10.9%.
For `CCN1CCCC1CNC(=O)CSc1cc(=O)n(C)c2cc(Cl)ccc12` (centres unmarked) the value was -32.7%; for `CC1CCN(c2nnc(-c3ccccc3)c3ccccc23)CC1`, -28.7%; for `COc1ccc(CC(=O)NC(c2ccccc2)c2ccccc2)cc1S(=O)(=O)N1CCOCC1`, -6.09%.
The value for `COc1ccc(C(=O)NN2CCOCC2)cc1[N+](=O)[O-]` was 12.9%; that for `COc1cc(CNC2CCCc3ccccc32)cc(OC)c1OC.O=C(O)C(=O)O` (centres unmarked) was -13.9%.
Take `[Br-].c1ccc(-c2cn(-c3ccccc3)c3[n+]2CCCS3)cc1`: the “hERG current change (%, negative = inhibition) at 10uM” value was -3.51%.
The value for `Cc1cc(N2CCN(c3ncccn3)CC2)nc2c(C)cccc12` was 11.9%.
For `COCCCNC(=O)CS(=O)(=O)Cc1nc(-c2cccc(OC)c2)oc1C` the value was 7.73%.
With `CC1=CCn2c(=O)c3ccccc3c(=O)n2C1`, the “hERG current change (%, negative = inhibition) at 10uM” value came to 13.1%.
The value for `Cc1cccc(-n2c(C)c(-c3ccccc3)[nH]c2=S)c1` was 4.01%.
With `CCSc1nnc(-c2ccc(S(=O)(=O)N3CCCC3)cc2)n1C`, the “hERG current change (%, negative = inhibition) at 10uM” value came out at 8.57%.
For `Cc1ccc(S(=O)(=O)Nc2cc(Cl)c(O)c3ncccc23)cc1`, the “hERG current change (%, negative = inhibition) at 10uM” value is on record as -23.4%.
For `O=C(CSCc1ccccc1)N1CCN(S(=O)(=O)c2cccc(F)c2)CC1` the value was 9.83%.
For `COC(=O)c1ccc(N2CCN(C)CC2)c(NC(=O)COc2ccc(C)cc2)c1` the value was -20%.
The value for `CCOC(=O)c1c(C)n(CC(COC(C)=O)OC(C)=O)c2ccc(OC(C)=O)cc12` (centres unmarked) was -33.3%; that for `COc1ccc(/C=N/NC(=O)c2cccnc2)cc1CSc1ccccn1` was -6.44%.
`Cc1[nH]c2ccc(OCc3ccccc3)cc2c1CCN1C(=O)OC(C)(C)C1(C)O` (centres unmarked): the “hERG current change (%, negative = inhibition) at 10uM” value stood at 4.14%.
Turning to `COc1ccc(N2CCN(CC(=O)Nc3ccccc3C(=O)NCc3ccccc3)CC2)cc1`, the “hERG current change (%, negative = inhibition) at 10uM” value was -55.9%.
For `O=C(N/N=C/C1=Cc2ccccc2OC1)c1ccncc1` the value was 11.8%.
The value for `N#Cc1c2n(c(=S)n(-c3ccccc3[N+](=O)[O-])c1=O)CCCCC2` was -15%; that for `CC(Sc1cccc[n+]1[O-])c1ccccc1` (centres unmarked) was 17.2%.
The value for `Cc1ccc(S(=O)(=O)NCc2ccc(/C=C(/C#N)C(=O)NCc3ccccc3)o2)cc1` was -16.3%; that for `COc1cccc(N2CCN(Cc3nc(N)nc(N4CCCc5ccccc54)n3)CC2)c1` was -45%; that for `CC[C@@H]1CC=C[C@H]2[C@H]1C(=O)N(Cc1ccccc1)[C@H]2c1ccoc1` was -8.05%.
As to `COc1ccc(CNC(=O)Cn2c(=O)oc3cc(S(=O)(=O)N4CCCC4)ccc32)cc1`, the “hERG current change (%, negative = inhibition) at 10uM” value worked out at 36.5%.
The value for `O=C(NCC(c1cccnc1)N1CCN(c2ccccc2F)CC1)OCc1ccccc1` (centres unmarked) was -20.2%; that for `Cc1ccc2c(=O)cc(C(=O)NCCc3ccc(S(N)(=O)=O)cc3)oc2c1C` was 25.8%.
